Measured values reported in PubChem BioAssay AID504884 (Broad Institute, 2011).
Hit rate of the full screen: of about 360,000 compounds, about 230 (0.064%) were called active. The shares of active, inactive and inconclusive entries below differ from those in the screen. Rule as the data show it: active = activity above about 50% (passing the limit was not always enough); inconclusive = no clear call, values can overlap the other calls.

tested on: DNA topoisomerase I (Yersinia pestis CO92); assay: Yersinia pestis topoisomerase I inhibitors, primary screen, biochemical, cleavage product accumulation, plate reader, single point (AID 504884); conditions: Y. pestis Topo-I cleavage product accumulation, at 10 µM, stronger effect = higher value

| SMILES | activity |
| --- | --- |
| COc1ccc(-c2nc(C(=O)O)cs2)cc1OC | inconclusive: 58.4% |
| CC1CN(C)C(C)c2c1oc1ccc(N)cc21 (centres undefined) | inconclusive: 105% |
| COc1ccccc1C(=O)N/C(=C/c1ccc(Br)cc1)C(=O)N1CCCC1 | inconclusive: 52.6% |
| COCCNC(=O)c1cccc(Nc2nc(-c3ccccc3)c3cc(Cl)ccc3n2)c1 | inconclusive: 54.9% |
| C#CC(=O)N(c1cc(OC)ccc1OC)C(C(=O)NC1CCCC1)c1cccs1 (centres undefined) | inactive: 4.3% |
| CC(C)NC(=O)N(C)C[C@H]1Oc2ccc(NC(=O)NC3CCCCC3)cc2C(=O)N([C@H](C)CO)C[C@@H]1C | inconclusive: 224% |
| Cc1c(OCc2nn[nH]n2)ccc2c3c(c(=O)oc12)CCC(C)C3 (centres undefined) | inactive: 2.1% |
| Cn1cc(C(=O)C(=O)NC2CCCCC2)c2ccccc21 | inactive: 17.5% |
| O=C(NCc1ccccc1)c1cccc2c(-c3ccc(F)c(F)c3)coc12 | inconclusive: 51.3% |
| COc1ccc2c(c1)OC[C@H]1[C@H]2N2C(=O)c3cc(C)ccc3NC(=O)[C@@]2(C)[C@H]1c1ccccc1 | inactive: 16.1% |
| CCCCOc1ccc(Cl)cc1CSc1n[nH]c(C)n1 | inactive: 6.68% |
| C=CCc1cc(OC)ccc1OCCOCCN1CCc2ccccc2C1 | inconclusive: 52.4% |
| CCCCOc1cc(C)nc(NCc2ccccc2)n1 | inconclusive: 51.6% |
| CC(C)(C)OC(=O)NCc1ccc(NC(=O)c2nc[nH]c2C(=O)NCCN(CCNC(=O)c2[nH]cnc2C(=O)Nc2ccc(CNC(=O)OC(C)(C)C)cc2)CCNC(=O)c2[nH]cnc2C(=O)Nc2ccc(CNC(=O)OC(C)(C)C)cc2)cc1 | inconclusive: 54.5% |
| O=C(CNc1ccccc1Cl)c1ccc(Br)cc1 | inconclusive: 82.3% |
| CS(=O)(=O)Nc1ccc(C(=O)N2CCCCC2)cc1 | inconclusive: 53.1% |
| CCOc1cc(N2CCOCC2)c(OCC)cc1NC(=O)c1cc(C)nc2ccccc12 | inconclusive: 62.7% |
| CCOC(=O)Cn1c2ccc(C)cc2c2nc(C)sc21 | inconclusive: 51.3% |
| Cn1cc(C(=O)c2ccc(Cl)cc2Cl)cc1C(=O)N/N=C(\N)COc1ccc(Cl)cc1Cl | inconclusive: 63.6% |
| Cc1cccc(NC(=O)c2nc[nH]c2C(=O)NCCN(CCNC(=O)c2[nH]cnc2C(=O)Nc2cccc(C)c2)CCNC(=O)c2[nH]cnc2C(=O)Nc2cccc(C)c2)c1 | inconclusive: 55.3% |
| O=C(Cc1ccc(F)cc1)NCCS(=O)(=O)N1CCN(c2cccc(Cl)c2)CC1 | inactive: 2.1% |

| SMILES | activity |
| --- | --- |
| CSc1ncccc1C(=O)OCC(=O)N1CCN(S(=O)(=O)c2ccc(C)cc2C)CC1 | inconclusive: 60.7% |
| Cc1cccc(OCCOC(=O)C2CCN(S(=O)(=O)c3ccc(C)c(C)c3)CC2)c1 | inconclusive: 55.7% |
| CCSc1nnc2ccc(-c3ccc(C)cc3)nn12 | inactive: 17.8% |
| Cc1cccc(C(=O)Nc2ccc(C(=O)N/N=C/c3ccc(C)o3)cc2)c1 | inactive: -6.37% |
| Cn1c(C(=O)NCCC2=CCCCC2)cc2c(=O)n3ccccc3nc21 | inactive: 4.79% |
| COc1ccccc1CC(=O)c1ccc(OCc2ccccc2)cc1 | inconclusive: 51.2% |
| CCn1c(SCC(=O)c2ccccc2)nc2sc3c(c2c1=O)CCN(C)C3 | inactive: 3.94% |
| COc1ccc(NC(=O)COc2ccccc2Cc2ccccc2)cc1S(=O)(=O)N1CCOCC1 | inconclusive: 60.2% |
| COc1cc(/C=N/NC(=O)/C(=C\c2ccc([N+](=O)[O-])cc2)NC(=O)c2ccccc2)cc(OC)c1O | inactive: 14.4% |
| Cc1ccc(NC(=O)COC(=O)C(NS(=O)(=O)c2ccc(Cl)cc2)C(C)O)c(Br)c1 (centres undefined) | inconclusive: 78.7% |
| C=CCSc1nc(-c2ccc(OC)cc2)c(C#N)c(=O)n1CC=C | inconclusive: 54.5% |
| Cc1cc(-c2nnc3n2N=C(c2ccc(-c4ccccc4)cc2)CS3)n[nH]1 | inconclusive: 50.7% |
| Cc1ccc(Cl)cc1C1=CC(=O)C[C@H](c2ccc(F)cc2)C1 | active: 69.3% |
| COc1ccc(CN2C(=O)NC(=O)/C(=C\c3cc(OC)c(OC)c(OC)c3)C2=O)cc1 | inconclusive: 57.8% |
| Cc1ccc(NC(=O)CN2CCN(Cc3ccccc3)CC2)c(Br)c1 | inconclusive: 56.2% |
| O=C(CSc1nnc(-c2ccco2)o1)N1CCN(c2ccccc2)CC1 | inconclusive: 71.2% |
| CCN(CC)c1ccc2nc3ccc(N)cc3[n+](-c3ccccc3)c2c1 | active: 534% |
| CCCCC/C=C/C1=CC(=O)C[C@H](c2ccc3c(c2)OCO3)C1 | active: 62.8% |
| N#C/C(=C/c1cn(CC(=O)O)c2ccccc12)C(=O)NCc1ccccc1 | inconclusive: 59.5% |
| COc1ccc(C(C)(C)C)cc1NC(=O)COC(=O)CSCc1c(C)noc1C | inconclusive: 128% |
| C=CCC1(CC=C)CCCN1C(=O)c1cc(COc2cccc(OC)c2)on1 | inconclusive: 54.3% |

| SMILES | activity |
| --- | --- |
| O=C(NCc1ccc(F)cc1)C(Cc1ccccc1)NS(=O)(=O)c1cccs1 (centres undefined) | inactive: 6.03% |
| Cc1ccc2c(c1)sc(=NC(=O)c1cccs1)n2C | inconclusive: 53.1% |
| CCOC(=O)Nc1nnc(Cc2ccc(Cl)c(Cl)c2)s1 | inconclusive: 90.4% |
| COc1ccc(/C=C(/NC(=O)c2ccco2)C(=O)NCc2ccco2)cc1OC | inconclusive: 73.7% |
| Cc1ccc(C(=O)CCC(=O)N2CCN(C(=O)c3ccco3)CC2)cc1 | inconclusive: 112% |
| CC(C)CN(CC(C)C)C(=O)Cc1coc2ccc3ccccc3c12 | inconclusive: 50.3% |
| O=C(NCC1(c2ccccc2)CCCC1)C1(c2ccccc2)CCCC1 | active: 68.2% |
| COc1ccc(C(C(=O)NC2CCCC2)N(C(=O)c2ccoc2C)c2cc(C)cc(C)c2)cc1 (centres undefined) | inconclusive: 56.5% |
| COc1ccccc1C(=O)C1CCCN(C(=O)CCC(=O)c2ccccc2)C1 (centres undefined) | inconclusive: 127% |
| O=C(CN1C(=O)NC2(CCCC2)C1=O)Nc1nc(-c2ccccc2)cs1 | inconclusive: 79.6% |
| CSc1ccccc1NC(=O)CN(C)CC(=O)Nc1ccc(Cl)cc1[N+](=O)[O-] | inconclusive: 53.2% |
| N#Cc1ccc(CSc2ccc(S(=O)(=O)N3CCCCCC3)cn2)cc1 | inconclusive: 54.2% |
| CCOC(=O)Cc1ccc2sc(-c3ccccc3)nc2c1 | inconclusive: 52.4% |
| COc1ccc(NC(=O)N(C)C[C@@H]2OCc3ccccc3-c3c(n(C)c4ccccc34)C(=O)N([C@H](C)CO)C[C@H]2C)c(OC)c1 | inconclusive: 50.3% |
| CCCN1CCCc2cc(CN)ccc21 | inactive: -2.6% |
| CC(C)(C)OC(=O)NOCC(=O)N(Cc1ccccc1)CC(O)COc1ccccc1 (centres undefined) | inconclusive: 153% |
| O=C(/C=C/c1c(F)cccc1Cl)c1ccc(O)cc1 | inactive: -1.59% |
| CN(Cc1cccnc1)C(=O)c1cc(COc2ccc3c(c2)CCCC3)on1 | inconclusive: 54.4% |
| CC(=O)Oc1ccc(/C=C(\NC(=O)c2cccc(Br)c2)C(=O)Nc2ccc(C(=O)O)cc2)cc1 | inactive: 3.4% |
| CC1CCCCN1C(=O)CSc1nc(-c2ccccc2)cc(=O)[nH]1 (centres undefined) | inconclusive: 101% |
| CN(CC(=O)Nc1cccc(F)c1)C(=O)c1ccccc1-n1cnnn1 | inconclusive: 83% |

| SMILES | activity |
| --- | --- |
| O=C(Cn1cnc2ccccc2c1=O)c1ccc2ccccc2c1 | inactive: -1.42% |
| CCCOc1ccc(/C(O)=C2/C(=O)C(=O)N(c3ccccn3)C2c2ccc(OC)cc2)cc1C (centres undefined) | active: 55.8% |
| CCCN(CCC)C(=O)CC(c1ccccc1)c1cc(C)ccc1O (centres undefined) | inconclusive: 51.4% |
| Cc1ccc(CSC2=Nc3ccccc3C3=NC(=O)CN23)cc1 | active: 157% |
| Cc1ccc([C@@H]2[C@@H]3C(=O)N(C)C(=O)[C@@H]3[C@@H]3C(=O)Nc4ccccc4C(=O)N23)cc1 | inconclusive: 100% |
| COc1ccc(-c2nc3ccccc3n2Cc2ccc(C)cc2)cc1 | inconclusive: 51.4% |
| Cc1ccc(S(=O)(=O)NC(=O)C2(C)CCN2C(=O)CC2CCCCC2)nc1 (centres undefined) | inactive: 10.4% |
| CCCCCCCCNS(=O)(=O)CCNCc1ccccc1OC | active: 52.8% |
| O=C(COCc1ccccc1)N[C@@H]1c2ccccc2CC[C@@H]1OCc1ccccc1 | inconclusive: 50.2% |
| C/C(=N\NC(=S)Nc1cccc(C)c1)c1cc2ccccc2o1 | inactive: 24.7% |
| O=S(=O)(c1cc(C(F)(F)F)ccc1Cl)N1CCN(c2ncnc3ccccc23)CC1 | inconclusive: 51.1% |
| CC(C)c1ccc(CC(=O)N2CCC2(C)C(=O)NS(=O)(=O)c2ccc(Cl)s2)cc1 (centres undefined) | inconclusive: 156% |
| C=CC[C@@H](CC(=O)N[C@H](CO)Cc1ccccc1)C(=O)N[C@H](COC(=O)[C@@H](CC=C)CC(=O)OC(C)(C)C)Cc1c[nH]c2ccccc12 | inconclusive: 72.2% |
| Cc1cc(NC(=O)c2cc(-c3ccccc3)on2)n(-c2ccccc2)n1 | active: 107% |
| CSc1ccccc1NC(=O)COC(=O)CCCOc1ccc(C)cc1 | active: 71.8% |
| Cc1cc2cc(CNC(=O)NC3CCCCC3)ccc2[nH]1 | inactive: -7.27% |
| Cn1c(SCC(=O)NCc2cccs2)nnc1-c1ccncc1 | active: 55.6% |
| Cc1ccc(C(=O)CNc2cccc(Cl)c2)cc1 | active: 65.1% |
| Cc1cccc(C2c3[nH]c4ccccc4c3CCN2C(=O)c2cc3c([nH]c2=O)CCCC3)n1 (centres undefined) | inconclusive: 52.3% |
| Cc1noc(C)c1COC(=O)CCCOc1ccc(Cl)cc1Cl | active: 61.4% |
| Cc1cc(OCC(=O)C(C)(C)C)c2c(C)c(C)c(=O)oc2c1 | inactive: 7.94% |
